Measurements: PMC12820563, “FoxP3 forms a head-to-head dimer in vivo and stabilizes its multimerization on adjacent microsatellites”
The other results are listed elsewhere or left out.

Biological target: T1, MBP-FoxP1dN (Mus musculus, UniProt P58462 326-579)
T1 sequence: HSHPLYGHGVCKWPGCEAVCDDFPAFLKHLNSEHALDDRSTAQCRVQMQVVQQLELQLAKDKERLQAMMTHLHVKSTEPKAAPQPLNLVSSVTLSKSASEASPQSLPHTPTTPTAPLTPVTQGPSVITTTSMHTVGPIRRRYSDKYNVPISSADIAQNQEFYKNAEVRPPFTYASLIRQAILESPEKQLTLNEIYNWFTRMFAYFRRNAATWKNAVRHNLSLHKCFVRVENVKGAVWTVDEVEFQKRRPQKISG
Test: PD-seq (MBP pull-down with sequencing); 20 mM Tris-HCl pH 7.5, 100 mM NaCl, 1.5 mM MgCl2, 0.4 uM protein, 0.1 uM dsDNA library, 30 min, room temperature, amylose pull-down; high values mean tight binding
Conditions: protein: recombinant; tags: His6-MBP; chain copies: 2; dsDNA, one strand shown
Procedure, shortened: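 Binding is the reads-per-million enrichment of pull-down relative to input, pooled across replicates. For this, 0.4 µM His6-MBP-tagged mouse FoxP3 or FoxP1 fragment lacking the N-terminus, made in E. coli, was incubated with 0.1 µM Klenow-filled double-stranded degenerate DNA library for 30 min at room temperature in Tris pH 7.5 buffer with NaCl and MgCl2. Complexes bound to amylose resin were washed three times before proteinase K released the DNA for PCR barcoding and Illumina sequencing.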

Point of comparison: “GATGATTGTTCTCCCAGCTGATGAATTCTTCGGGTCGAGTAAACAAATTTTCCTAATCTTTCTGTTCAAGCGCCATCTAC”, binding signal 0.773 RPM ratio (pull-down/input). Against it:
- GATGATTGTTCTCCCAGCTGATGAATTTTAGCATTCGAGTAAACAAATTTTCCTAATCTTTCTGTTCAAGCGCCATCTAC — higher, 1.28 RPM ratio (pull-down/input)
- GATGATTGTTCTCCCAGCTGATGAATTGAGGTGGTCGAGTAAACAAATTTTCCTAATCTTTCTGTTCAAGCGCCATCTAC — lower, 0.761 RPM ratio (pull-down/input)
- GATGATTGTTCTCCCAGCTGATGAATTGCTGCCGTCGAGTAAACAAATTTTCCTAATCTTTCTGTTCAAGCGCCATCTAC — higher, 0.917 RPM ratio (pull-down/input)
- GATGATTGTTCTCCCAGCTGATGAATTCCCCCTCTCGAGTAAACAAATTTTCCTAATCTTTCTGTTCAAGCGCCATCTAC — higher, 0.802 RPM ratio (pull-down/input)
- GATGATTGTTCTCCCAGCTGATGAATTAAGTAAGTCGAGTAAACAAATTTTCCTAATCTTTCTGTTCAAGCGCCATCTAC — higher, 0.965 RPM ratio (pull-down/input)
- GATGATTGTTCTCCCAGCTGATGAATTTGGCGTCTCGAGTAAACAAATTTTCCTAATCTTTCTGTTCAAGCGCCATCTAC — higher, 0.85 RPM ratio (pull-down/input)
- GATGATTGTTCTCCCAGCTGATGAATTAACTTTATCGAGTAAACAAATTTTCCTAATCTTTCTGTTCAAGCGCCATCTAC — higher, 0.926 RPM ratio (pull-down/input)
- GATGATTGTTCTCCCAGCTGATGAATTCTAAGGGTCGAGTAAACAAATTTTCCTAATCTTTCTGTTCAAGCGCCATCTAC — higher, 0.819 RPM ratio (pull-down/input)
- GATGATTGTTCTCCCAGCTGATGAATTTGGAGCTTCGAGTAAACAAATTTTCCTAATCTTTCTGTTCAAGCGCCATCTAC — higher, 0.812 RPM ratio (pull-down/input)
- GATGATTGTTCTCCCAGCTGATGAATTCAGGCAGTCGAGTAAACAAATTTTCCTAATCTTTCTGTTCAAGCGCCATCTAC — higher, 0.864 RPM ratio (pull-down/input)
- GATGATTGTTCTCCCAGCTGATGAATTGGATGGATCGAGTAAACAAATTTTCCTAATCTTTCTGTTCAAGCGCCATCTAC — higher, 0.848 RPM ratio (pull-down/input)
- GATGATTGTTCTCCCAGCTGATGAATTGGACCAATCGAGTAAACAAATTTTCCTAATCTTTCTGTTCAAGCGCCATCTAC — higher, 0.964 RPM ratio (pull-down/input)
- GATGATTGTTCTCCCAGCTGATGAATTCACGATGTCGAGTAAACAAATTTTCCTAATCTTTCTGTTCAAGCGCCATCTAC — higher, 0.92 RPM ratio (pull-down/input)
- GATGATTGTTCTCCCAGCTGATGAATTACCAAGGTCGAGTAAACAAATTTTCCTAATCTTTCTGTTCAAGCGCCATCTAC — higher, 0.799 RPM ratio (pull-down/input)
- GATGATTGTTCTCCCAGCTGATGAATTCAGCAGGTCGAGTAAACAAATTTTCCTAATCTTTCTGTTCAAGCGCCATCTAC — lower, 0.755 RPM ratio (pull-down/input)
- GATGATTGTTCTCCCAGCTGATGAATTGTCTTTTTCGAGTAAACAAATTTTCCTAATCTTTCTGTTCAAGCGCCATCTAC — higher, 1.3 RPM ratio (pull-down/input)
- GATGATTGTTCTCCCAGCTGATGAATTGTGCTACTCGAGTAAACAAATTTTCCTAATCTTTCTGTTCAAGCGCCATCTAC — higher, 1.09 RPM ratio (pull-down/input)
- GATGATTGTTCTCCCAGCTGATGAATTTGCACTGTCGAGTAAACAAATTTTCCTAATCTTTCTGTTCAAGCGCCATCTAC — higher, 0.919 RPM ratio (pull-down/input)
- GATGATTGTTCTCCCAGCTGATGAATTCTCCCTTTCGAGTAAACAAATTTTCCTAATCTTTCTGTTCAAGCGCCATCTAC — higher, 0.829 RPM ratio (pull-down/input)
- GATGATTGTTCTCCCAGCTGATGAATTCGTAACTTCGAGTAAACAAATTTTCCTAATCTTTCTGTTCAAGCGCCATCTAC — higher, 0.902 RPM ratio (pull-down/input)
- GATGATTGTTCTCCCAGCTGATGAATTGTTCAGTTCGAGTAAACAAATTTTCCTAATCTTTCTGTTCAAGCGCCATCTAC — higher, 1.07 RPM ratio (pull-down/input)
- GATGATTGTTCTCCCAGCTGATGAATTAATTAACTCGAGTAAACAAATTTTCCTAATCTTTCTGTTCAAGCGCCATCTAC — higher, 0.983 RPM ratio (pull-down/input)
- GATGATTGTTCTCCCAGCTGATGAATTTACGCACTCGAGTAAACAAATTTTCCTAATCTTTCTGTTCAAGCGCCATCTAC — higher, 1.2 RPM ratio (pull-down/input)
- GATGATTGTTCTCCCAGCTGATGAATTCTACCAGTCGAGTAAACAAATTTTCCTAATCTTTCTGTTCAAGCGCCATCTAC — higher, 0.811 RPM ratio (pull-down/input)
- GATGATTGTTCTCCCAGCTGATGAATTTACGGTGTCGAGTAAACAAATTTTCCTAATCTTTCTGTTCAAGCGCCATCTAC — higher, 1.11 RPM ratio (pull-down/input)
- GATGATTGTTCTCCCAGCTGATGAATTCTTTAACTCGAGTAAACAAATTTTCCTAATCTTTCTGTTCAAGCGCCATCTAC — higher, 0.907 RPM ratio (pull-down/input)
- GATGATTGTTCTCCCAGCTGATGAATTAAAAAGATCGAGTAAACAAATTTTCCTAATCTTTCTGTTCAAGCGCCATCTAC — higher, 0.931 RPM ratio (pull-down/input)
- GATGATTGTTCTCCCAGCTGATGAATTGGTAAGATCGAGTAAACAAATTTTCCTAATCTTTCTGTTCAAGCGCCATCTAC — higher, 1.01 RPM ratio (pull-down/input)
- GATGATTGTTCTCCCAGCTGATGAATTTGCGGTTTCGAGTAAACAAATTTTCCTAATCTTTCTGTTCAAGCGCCATCTAC — higher, 0.97 RPM ratio (pull-down/input)
- GATGATTGTTCTCCCAGCTGATGAATTCGTCGACTCGAGTAAACAAATTTTCCTAATCTTTCTGTTCAAGCGCCATCTAC — higher, 0.821 RPM ratio (pull-down/input)
- GATGATTGTTCTCCCAGCTGATGAATTATTAGCATCGAGTAAACAAATTTTCCTAATCTTTCTGTTCAAGCGCCATCTAC — higher, 1.52 RPM ratio (pull-down/input)
- GATGATTGTTCTCCCAGCTGATGAATTAAGTACTTCGAGTAAACAAATTTTCCTAATCTTTCTGTTCAAGCGCCATCTAC — higher, 0.913 RPM ratio (pull-down/input)
- GATGATTGTTCTCCCAGCTGATGAATTCCCGGATTCGAGTAAACAAATTTTCCTAATCTTTCTGTTCAAGCGCCATCTAC — higher, 0.798 RPM ratio (pull-down/input)
- GATGATTGTTCTCCCAGCTGATGAATTGTATATGTCGAGTAAACAAATTTTCCTAATCTTTCTGTTCAAGCGCCATCTAC — higher, 1.46 RPM ratio (pull-down/input)
- GATGATTGTTCTCCCAGCTGATGAATTGGCATATTCGAGTAAACAAATTTTCCTAATCTTTCTGTTCAAGCGCCATCTAC — higher, 0.976 RPM ratio (pull-down/input)
- GATGATTGTTCTCCCAGCTGATGAATTTGATTAGTCGAGTAAACAAATTTTCCTAATCTTTCTGTTCAAGCGCCATCTAC — higher, 1.04 RPM ratio (pull-down/input)
- GATGATTGTTCTCCCAGCTGATGAATTGACGTCTTCGAGTAAACAAATTTTCCTAATCTTTCTGTTCAAGCGCCATCTAC — higher, 1.1 RPM ratio (pull-down/input)
- GATGATTGTTCTCCCAGCTGATGAATTATGCTAATCGAGTAAACAAATTTTCCTAATCTTTCTGTTCAAGCGCCATCTAC — higher, 1.21 RPM ratio (pull-down/input)
- GATGATTGTTCTCCCAGCTGATGAATTCGACTATTCGAGTAAACAAATTTTCCTAATCTTTCTGTTCAAGCGCCATCTAC — higher, 0.904 RPM ratio (pull-down/input)
